Data as given in the supplement of paper PMC8728848.
The list shows a part of the results.

Columns and labels:
Test in all cases: glycan array binding signal (z-score within array); higher = stronger binding
Settings in all cases: glycan notation: IUPAC condensed, linker removed
[1] = molecular target: Neu5Ac(a2-6)Gal(b1-4)GlcNAc(b1-3)Gal(b1-4)GlcNAc(b1-3)GalNAc
Summary of the method: (§1)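 Arrays were curated from the Consortium for Functional Glycomics database, 3228 in total, and kept only where the protein sequence was available. Binding is expressed as a within-array Z-score. This score was averaged across arrays of the same protein sequence at different concentrations or buffers and across linkers, and negative values can be read as non-binding.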

[2] = molecular target: Neu5Ac(a2-6)Gal(b1-4)GlcNAc(b1-3)Gal(b1-4)GlcNAc(b1-3)[Neu5Ac(a2-6)Gal(b1-4)GlcNAc(b1-3)Gal(b1-4)GlcNAc(b1-6)]GalNAc
Summary of the method: as §1

[3] = molecular target: Neu5Ac(a2-6)Gal(b1-4)GlcNAc(b1-3)Gal(b1-4)GlcNAc(b1-6)[Gal(b1-3)]GalNAc
Summary of the method: as §1

[4] = molecular target: Neu5Ac(a2-6)Gal(b1-4)GlcNAc(b1-3)Gal(b1-4)[Fuc(a1-3)]GlcNAc(b1-3)Gal(b1-4)[Fuc(a1-3)]GlcNAc
Summary of the method: as §1

[5] = molecular target: Neu5Ac(a2-6)Gal(b1-4)GlcNAc(b1-3)GalNAc
Summary of the method: as §1

[6] = molecular target: Neu5Ac(a2-6)Gal(b1-4)GlcNAc(b1-3)[Neu5Ac(a2-6)Gal(b1-4)GlcNAc(b1-6)]GalNAc
Summary of the method: as §1

[7] = molecular target: Neu5Ac(a2-6)Gal(b1-4)GlcNAc(b1-6)GalNAc
Summary of the method: as §1

[8] = molecular target: Neu5Ac(a2-6)Gal(b1-4)GlcNAc(b1-6)[Gal(b1-3)GlcNAc(b1-3)]Gal(b1-4)Glc
Summary of the method: as §1

[9] = molecular target: Neu5Ac(a2-6)Gal(b1-4)GlcNAc(b1-6)[Gal(b1-3)]GalNAc
Summary of the method: as §1

[10] = molecular target: Neu5Ac(a2-6)Gal(b1-4)GlcNAc6S
Summary of the method: as §1

Neu5Ac(a2-6)GalNAc = molecular target: Neu5Ac(a2-6)GalNAc
Summary of the method: as §1

[11] = molecular target: Neu5Ac(a2-6)GalNAc(b1-4)GlcNAc
Summary of the method: as §1

[12] = molecular target: Neu5Ac(a2-6)GalNAc(b1-4)GlcNAc6S
Summary of the method: as §1

[13] = molecular target: Neu5Ac(a2-6)GlcNAc(b1-4)GlcNAc
Summary of the method: as §1

[14] = molecular target: Neu5Ac(a2-6)GlcNAc(b1-4)GlcNAc(b1-4)GlcNAc
Summary of the method: as §1

Neu5Ac(a2-8)Neu5Ac = molecular target: Neu5Ac(a2-8)Neu5Ac
Summary of the method: as §1

[15] = molecular target: Neu5Ac(a2-8)Neu5Ac(a2-3)Gal(b1-3)GalNAc(b1-4)[Neu5Ac(a2-3)]Gal(b1-4)Glc
Summary of the method: as §1

[16] = molecular target: Neu5Ac(a2-8)Neu5Ac(a2-3)Gal(b1-3)GalNAc(b1-4)[Neu5Ac(a2-8)Neu5Ac(a2-3)]Gal(b1-4)Glc
Summary of the method: as §1

[17] = molecular target: Neu5Ac(a2-8)Neu5Ac(a2-3)Gal(b1-4)Glc
Summary of the method: as §1

[18] = molecular target: Neu5Ac(a2-8)Neu5Ac(a2-3)Gal(b1-4)GlcNAc
Summary of the method: as §1

[19] = molecular target: Neu5Ac(a2-8)Neu5Ac(a2-3)[Gal(b1-3)GalNAc(b1-4)]Gal(b1-4)Glc
Summary of the method: as §1

[20] = molecular target: Neu5Ac(a2-8)Neu5Ac(a2-3)[GalNAc(b1-4)]Gal(b1-4)Glc
Summary of the method: as §1

[21] = molecular target: Neu5Ac(a2-8)Neu5Ac(a2-8)Neu5Ac
Summary of the method: as §1

[22] = molecular target: Neu5Ac(a2-8)Neu5Ac(a2-8)Neu5Ac(a2-3)Gal(b1-4)Glc
Summary of the method: as §1

[23] = molecular target: Neu5Ac(a2-8)Neu5Ac(a2-8)Neu5Ac(a2-3)[Gal(b1-3)GalNAc(b1-4)]Gal(b1-4)Glc
Summary of the method: as §1

[24] = molecular target: Neu5Ac(a2-8)Neu5Ac(a2-8)Neu5Ac(a2-3)[GalNAc(b1-4)]Gal(b1-4)Glc
Summary of the method: as §1

[25] = molecular target: Neu5Ac(a2-8)Neu5Ac(a2-8)Neu5Ac(a2-8)Neu5Ac(a2-3)[GalNAc(b1-4)]Gal(b1-4)Glc
Summary of the method: as §1

[26] = molecular target: Neu5Ac(a2-8)Neu5Gc(a2-3)Gal(b1-4)GlcNAc
Summary of the method: as §1

[27] = molecular target: Neu5Ac(b2-6)Gal(b1-4)GlcNAc
Summary of the method: as §1

Neu5Ac(b2-6)GalNAc = molecular target: Neu5Ac(b2-6)GalNAc
Summary of the method: as §1

[28] = molecular target: Neu5Ac9Ac(a2-3)Gal(b1-3)GlcNAc
Summary of the method: as §1

[29] = molecular target: Neu5Ac9Ac(a2-3)Gal(b1-4)GlcNAc
Summary of the method: as §1

[30] = molecular target: Neu5Ac9Ac(a2-6)Gal(b1-4)GlcNAc
Summary of the method: as §1

[31] = molecular target: Neu5Gc(a2-3)Gal(b1-3)GlcNAc
Summary of the method: as §1

[32] = molecular target: Neu5Gc(a2-3)Gal(b1-3)[Fuc(a1-4)]GlcNAc
Summary of the method: as §1

Neu5Gc(a2-3)Gal(b1-4)Glc = molecular target: Neu5Gc(a2-3)Gal(b1-4)Glc
Summary of the method: as §1

[33] = molecular target: Neu5Gc(a2-3)Gal(b1-4)GlcNAc
Summary of the method: as §1

[34] = molecular target: Neu5Gc(a2-3)Gal(b1-4)GlcNAc(b1-3)Gal(b1-4)GlcNAc(b1-2)Man(a1-3)[Neu5Gc(a2-3)Gal(b1-4)GlcNAc(b1-3)Gal(b1-4)GlcNAc(b1-2)Man(a1-6)]Man(b1-4)GlcNAc(b1-4)GlcNAc
Summary of the method: as §1

[35] = molecular target: Neu5Gc(a2-3)Gal(b1-4)[Fuc(a1-3)]GlcNAc
Summary of the method: as §1

[36] = molecular target: Neu5Gc(a2-6)Gal(b1-4)GlcNAc
Summary of the method: as §1

Neu5Gc(a2-6)GalNAc = molecular target: Neu5Gc(a2-6)GalNAc
Summary of the method: as §1

[37] = molecular target: Neu5Gc(a2-8)Neu5Ac(a2-3)Gal(b1-4)GlcNAc
Summary of the method: as §1

[38] = molecular target: Neu5Gc(a2-8)Neu5Gc(a2-3)Gal(b1-4)GlcNAc
Summary of the method: as §1

[39] = molecular target: Neu5Gc(a2-8)Neu5Gc(a2-3)Gal(b1-4)GlcNAc(b1-3)Gal(b1-4)GlcNAc
Summary of the method: as §1

[40] = molecular target: Neu5Gc(a2-8)Neu5Gc(a2-6)Gal(b1-4)GlcNAc
Summary of the method: as §1

[41] = molecular target: Neu5Gc(b2-6)Gal(b1-4)GlcNAc
Summary of the method: as §1

B1: Cohesin-mDC-ASGPR (Macaca mulatta) (protein)
chain: LDITSHHHHHHDDLDAVRIKVDTVNAKPGDTVRIPVRFSGIPSKGIANCDFVYSYDPNVLEIIEIEPGDIIVDPNPDKSFDTAVYPDRKIIVFLFAEDSGTGAYAITKDGVFATIVAKVKEGAPNGLSVIKFVEVGGFANNDLVEQKTQFFDGGVNVGDTTEPATPTTPVTTPTTTDDLDAASSQNSKFQRDLVTLRTDFSNFTSNTVAEIQALTSQGSSVEEMIASLKAEVEVIKQEQQAVHSEMLLRVQRLMQDLNKLTCQVATLKNNASTERTCCPVNWVEHQDSCYWFSRSGMPWAEAEKHCQLENAHLVVINSREEQNFVQEHLSFAYTWMGLSDREGAWKWVDGTDYETGFQNWKPGQPDDWQGHGLGGGEDCAHFHPDGRWNDDVCQRPYYWVCEAGLTQASQESH
glycan array binding signal (z-score) [1]: -0.385 | glycan array binding signal (z-score) [2]: -0.313 | glycan array binding signal (z-score) [3]: -0.421 | glycan array binding signal (z-score) [4]: -0.269 | glycan array binding signal (z-score) [5]: 2.03 | glycan array binding signal (z-score) [6]: -0.256 | glycan array binding signal (z-score) [7]: -0.167 | glycan array binding signal (z-score) [8]: -0.418 | glycan array binding signal (z-score) [9]: -0.407 | glycan array binding signal (z-score) [10]: -0.379 | glycan array binding signal (z-score) (Neu5Ac(a2-6)GalNAc): 3.61 | glycan array binding signal (z-score) [11]: 2.69 | glycan array binding signal (z-score) [12]: 2.56 | glycan array binding signal (z-score) [13]: -0.433 | glycan array binding signal (z-score) [14]: -0.417 | glycan array binding signal (z-score) (Neu5Ac(a2-8)Neu5Ac): -0.41 | glycan array binding signal (z-score) [15]: -0.43 | glycan array binding signal (z-score) [16]: -0.41 | glycan array binding signal (z-score) [17]: -0.399 | glycan array binding signal (z-score) [18]: -0.409 | glycan array binding signal (z-score) [19]: 3.49 | glycan array binding signal (z-score) [20]: 2.11 | glycan array binding signal (z-score) [21]: -0.427 | glycan array binding signal (z-score) [22]: -0.425 | glycan array binding signal (z-score) [23]: -0.429 | glycan array binding signal (z-score) [24]: 1.92 | glycan array binding signal (z-score) [25]: 2.52 | glycan array binding signal (z-score) [26]: -0.403 | glycan array binding signal (z-score) [27]: -0.426 | glycan array binding signal (z-score) (Neu5Ac(b2-6)GalNAc): 2.41 | glycan array binding signal (z-score) [28]: -0.348 | glycan array binding signal (z-score) [29]: -0.427 | glycan array binding signal (z-score) [30]: -0.406 | glycan array binding signal (z-score) [31]: -0.4 | glycan array binding signal (z-score) [32]: -0.422 | glycan array binding signal (z-score) (Neu5Gc(a2-3)Gal(b1-4)Glc): -0.407 | glycan array binding signal (z-score) [33]: -0.399 | glycan array binding signal (z-score) [34]: -0.407 | glycan array binding signal (z-score) [35]: 2.69 | glycan array binding signal (z-score) [36]: -0.412 | glycan array binding signal (z-score) (Neu5Gc(a2-6)GalNAc): 2.49 | glycan array binding signal (z-score) [37]: -0.417 | glycan array binding signal (z-score) [38]: -0.403 | glycan array binding signal (z-score) [39]: -0.401 | glycan array binding signal (z-score) [40]: -0.412 | glycan array binding signal (z-score) [41]: -0.424
